Source: the supplement of paper PMC12067230
Single values of this set are uncertain.

Assay: amyloid nucleation score relative to library mode (yeast Sup35 reporter selection) (log enrichment difference); higher = more amyloid nucleation; sequences are the first 22 residues of the Bri2 peptide extended by up to 12 random residues
Details: random library (experiment): 1;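 active = nucleation score significantly above 0 at FDR 0.05; inactive = not significantly above 0 or absent from output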
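Further: [psi-pin-] Saccharomyces cerevisiae expressing SupN fusions, induced by 100 µM Cu2SO4, selected 7 d at 30 °C without adenine and uracil, scored by deep sequencing of output versus input.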

| Sequence | amyloid nucleation score |
| --- | --- |
| EASNCFAIRHFENKFAVETLICDYESVVGSRGAE | inactive |
| EASNCFAIRHFENKFAVETLICQMGLSFRVVYTG | inactive |
| EASNCFAIRHFENKFAVETLICCETDI | inactive |
| EASNCFAIRHFENKFAVETLICREARQRLWREQA | inactive |
| EASNCFAIRHFENKFAVETLICVHMFRVFACSGL | inactive |
| EASNCFAIRHFENKFAVETLICVSKTGCGWLMCA | inactive |
| EASNCFAIRHFENKFAVETLICGTK | inactive |
| EASNCFAIRHFENKFAVETLICYPSFVGVDSGVI | inactive |
| EASNCFAIRHFENKFAVETLICVALYSLAVMAPA | inactive |
| EASNCFAIRHFENKFAVETLICWYVQQGSWWVVG | -0.392 |
| EASNCFAIRHFENKFAVETLICFRGARNMNQPNT | 3.02 |
| EASNCFAIRHFENKFAVETLICHYEGSRLGPAGR | 3.2 |
| EASNCFAIRHFENKFAVETLICLLCSVDWPDRVV | 7.95 |
| EASNCFAIRHFENKFAVETLICFVVRPIRMDMVR | inactive |
| EASNCFAIRHFENKFAVETLICGLGCLWPWWCCV | 4.49 |
| EASNCFAIRHFENKFAVETLICNISCSSFGATWE | 6.96 |
| EASNCFAIRHFENKFAVETLICNSVVGYFGTVAH | 7.68 |
| EASNCFAIRHFENKFAVETLICCIMFTVVIGLKV | 2.25 |
| EASNCFAIRHFENKFAVETLICRWCWLMGSMWSL | inactive |
| EASNCFAIRHFENKFAVETLICMSAVWRL | inactive |
| EASNCFAIRHFENKFAVETLICVGWYSRREMRKE | inactive |
| EASNCFAIRHFENKFAVETLICMKYWSGFGRRTG | 2.28 |
| EASNCFAIRHFENKFAVETLICRRHTCDFSRSGN | inactive |
| EASNCFAIRHFENKFAVETLICWCEVGRQHMDAG | -0.487 |
| EASNCFAIRHFENKFAVETLICLYKRWETVRSAS | inactive |
| EASNCFAIRHFENKFAVETLICPMVCGKGAEMRG | inactive |
| EASNCFAIRHFENKFAVETLICKWSCEHLGVV | inactive |
| EASNCFAIRHFENKFAVETLICIVFTLWLYRLMC | inactive |

| Sequence | amyloid nucleation score |
| --- | --- |
| EASNCFAIRHFENKFAVETLICLWSWPRPFERPE | 1.12 |
| EASNCFAIRHFENKFAVETLICCSIPQKVWGFPG | 8.56 |
| EASNCFAIRHFENKFAVETLICGMLSPSYSVFPE | inactive |
| EASNCFAIRHFENKFAVETLICHSVSLLRRVLYW | inactive |
| EASNCFAIRHFENKFAVETLICEVAWTLGKAVWS | inactive |
| EASNCFAIRHFENKFAVETLICTAEWWARRASGA | 4.49 |
| EASNCFAIRHFENKFAVETLICPIIIPVREST | 6.89 |
| EASNCFAIRHFENKFAVETLICPVVGYVCNRAVW | inactive |
| EASNCFAIRHFENKFAVETLICRIWPVWTEAIPC | inactive |
| EASNCFAIRHFENKFAVETLICAAPGQQDGEILW | 2.98 |
| EASNCFAIRHFENKFAVETLICAGVSNGGLLFCV | 1.07 |
| EASNCFAIRHFENKFAVETLICGAGCCRPERSAG | inactive |
| EASNCFAIRHFENKFAVETLICWVERCSRHWSGQ | 0.627 |
| EASNCFAIRHFENKFAVETLICFTG | inactive |
| EASNCFAIRHFENKFAVETLICDAVQSTGTEG | inactive |
| EASNCFAIRHFENKFAVETLICMALVNSSGPLRV | inactive |
| EASNCFAIRHFENKFAVETLICVSSSRPVGVMKL | inactive |
| EASNCFAIRHFENKFAVETLICDFT | inactive |
| EASNCFAIRHFENKFAVETLICLANMICT | inactive |
| EASNCFAIRHFENKFAVETLICRVLSTASPRVGC | inactive |
| EASNCFAIRHFENKFAVETLICGHVPYILCRMTY | 3.79 |
| EASNCFAIRHFENKFAVETLICFCPISVFLYTSR | 5.9 |
| EASNCFAIRHFENKFAVETLICKSPHVKLVSIRV | inactive |
| EASNCFAIRHFENKFAVETLICFIWVMWPCLLKS | inactive |
| EASNCFAIRHFENKFAVETLICNVSTSGVLVRRR | inactive |
| EASNCFAIRHFENKFAVETLICMYMRPYLCRDVS | 3.96 |
| EASNCFAIRHFENKFAVETLICLLVICWMGLAR | 0.609 |

Same assay, conditions: random library (experiment): 2

| Sequence | amyloid nucleation score |
| --- | --- |
| EASNCFAIRHFENKFAVETLICHRVLQFI | 3.96 |
| EASNCFAIRHFENKFAVETLICGIVIFTTSVDDK | 8 |
| EASNCFAIRHFENKFAVETLICVNNSVNWGLLG | inactive |
| EASNCFAIRHFENKFAVETLICHLLLIDFVWFKQ | inactive |
| EASNCFAIRHFENKFAVETLICRVCTSGYVSNMQ | 5.4 |
| EASNCFAIRHFENKFAVETLICRRCMR | inactive |
| EASNCFAIRHFENKFAVETLICARGYCASCVKLP | 2.16 |
| EASNCFAIRHFENKFAVETLICTMDKYSGSLDIR | inactive |
| EASNCFAIRHFENKFAVETLICLMFGSW | 5.06 |
| EASNCFAIRHFENKFAVETLICRRKTGRDERKND | inactive |
| EASNCFAIRHFENKFAVETLICYNGSRCISWVEG | inactive |
| EASNCFAIRHFENKFAVETLICYFLYFYVDGWCA | inactive |
| EASNCFAIRHFENKFAVETLICVGYCDSVYDAFV | inactive |
| EASNCFAIRHFENKFAVETLICIPVFWMKVKFSS | 3.14 |
| EASNCFAIRHFENKFAVETLICRGLSPRFCDESR | inactive |
| EASNCFAIRHFENKFAVETLICMFKLVTKSYIKW | 0.439 |
| EASNCFAIRHFENKFAVETLICDVKCLGY | inactive |
| EASNCFAIRHFENKFAVETLICFLPWTLSVSRLL | inactive |
| EASNCFAIRHFENKFAVETLICFTVC | 5.2 |
| EASNCFAIRHFENKFAVETLICVSARDCDTLPDS | inactive |
| EASNCFAIRHFENKFAVETLICVTRV | inactive |

| Sequence | amyloid nucleation score |
| --- | --- |
| EASNCFAIRHFENKFAVETLICRYIQGHGWCYRQ | 1.62 |
| EASNCFAIRHFENKFAVETLICVLRLRISVLPIP | -0.207 |
| EASNCFAIRHFENKFAVETLICAISFLYDNKRCS | inactive |
| EASNCFAIRHFENKFAVETLICHVRRVTMYHSIW | inactive |
| EASNCFAIRHFENKFAVETLICVFAV | inactive |
| EASNCFAIRHFENKFAVETLICLSVLVCHRMLNC | 4.75 |
| EASNCFAIRHFENKFAVETLICLVMRHMLQEGLL | inactive |
| EASNCFAIRHFENKFAVETLICPLKTVWLCNF | 4.31 |
| EASNCFAIRHFENKFAVETLICISADLLVPIVRL | inactive |
| EASNCFAIRHFENKFAVETLICFINLLSGGDARC | 8.05 |
| EASNCFAIRHFENKFAVETLICGYVDMFSIVLDR | 2.15 |
| EASNCFAIRHFENKFAVETLICYISCVC | 2.56 |
| EASNCFAIRHFENKFAVETLICLGSSVSKELGLR | 4.6 |
| EASNCFAIRHFENKFAVETLICERSALLWGVEDG | inactive |
| EASNCFAIRHFENKFAVETLICIPVPGEVSIYWW | inactive |
| EASNCFAIRHFENKFAVETLICTSTSLQLHIPFS | -0.131 |
| EASNCFAIRHFENKFAVETLICQFIMHCLMGNGV | inactive |
| EASNCFAIRHFENKFAVETLICLHEGMVLFFSML | inactive |
| EASNCFAIRHFENKFAVETLICLLKKV | inactive |
| EASNCFAIRHFENKFAVETLICTFRYTFV | inactive |

Same assay, conditions: random library (experiment): 3

| Sequence | amyloid nucleation score |
| --- | --- |
| EASNCFAIRHFENKFAVETLICGYW | inactive |
| EASNCFAIRHFENKFAVETLICGRRGMAAEGEVS | inactive |
| EASNCFAIRHFENKFAVETLICRESVSARQSGWA | 2.05 |
| EASNCFAIRHFENKFAVETLICMVCVDMYVVPNR | inactive |
| EASNCFAIRHFENKFAVETLICMQMMHVYRIHIN | inactive |
| EASNCFAIRHFENKFAVETLICVGLAKRGVEDGW | inactive |
| EASNCFAIRHFENKFAVETLICLSYLRYRGSPAV | 0.727 |
| EASNCFAIRHFENKFAVETLICIDHIFFYFRSFA | inactive |
| EASNCFAIRHFENKFAVETLICPSLDLCYARFLE | inactive |
| EASNCFAIRHFENKFAVETLICCCMLCIYYQSIV | inactive |
| EASNCFAIRHFENKFAVETLICGLAFTCVPCPLG | inactive |
| EASNCFAIRHFENKFAVETLICRHPSGCGESPVR | inactive |
| EASNCFAIRHFENKFAVETLICVSV | inactive |
| EASNCFAIRHFENKFAVETLICLYSYAM | inactive |
| EASNCFAIRHFENKFAVETLICDLVFRWRESSWR | -0.188 |
| EASNCFAIRHFENKFAVETLICCVQAAWMSPLVG | 2.18 |
| EASNCFAIRHFENKFAVETLICMWIRYSL | 0.433 |
| EASNCFAIRHFENKFAVETLICCYDNFYCTLTWT | -0.42 |
| EASNCFAIRHFENKFAVETLICDCLLTDVWLGRR | 7.35 |
| EASNCFAIRHFENKFAVETLICKAVTKCNWGCVS | inactive |
| EASNCFAIRHFENKFAVETLICPGDTCNLNWTPL | inactive |
| EASNCFAIRHFENKFAVETLICMDQCWKESGAWQ | 1.37 |
| EASNCFAIRHFENKFAVETLICQRWWGGSPRGPR | 4.08 |
